Measured values: the supplement of paper PMC8728848
The list shows a part of the results.

What was measured:
Assay in all cases: glycan array binding signal (z-score within array); higher = stronger binding
Conditions in all cases: glycan notation: IUPAC condensed, linker removed
[1] = molecular target: Neu5Ac(a2-6)Gal
Procedure, shortened: (§1)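 Columns mapping to the same glycan were averaged after glycan names were converted to IUPAC-condensed notation. The data come from 3228 arrays in the Consortium for Functional Glycomics database, limited to those with an available protein sequence. Binding is reported as a within-array Z-score averaged across arrays of one protein sequence and across linkers.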

[2] = molecular target: Neu5Ac(a2-6)Gal(b1-3)GlcNAc(b1-3)[Gal(b1-4)GlcNAc(b1-6)]Gal(b1-4)Glc
Procedure, shortened: as §1

[3] = molecular target: Neu5Ac(a2-6)Gal(b1-4)Glc
Procedure, shortened: as §1

[4] = molecular target: Neu5Ac(a2-6)Gal(b1-4)GlcNAc
Procedure, shortened: as §1

[5] = molecular target: Neu5Ac(a2-6)Gal(b1-4)GlcNAc(b1-2)Man
Procedure, shortened: as §1

[6] = molecular target: Neu5Ac(a2-6)Gal(b1-4)GlcNAc(b1-2)Man(a1-3)Man(b1-4)GlcNAc(b1-4)GlcNAc
Procedure, shortened: as §1

[7] = molecular target: Neu5Ac(a2-6)Gal(b1-4)GlcNAc(b1-2)Man(a1-3)[Gal(b1-4)GlcNAc(b1-2)Man(a1-6)]Man(b1-4)GlcNAc(b1-4)GlcNAc
Procedure, shortened: as §1

[8] = molecular target: Neu5Ac(a2-6)Gal(b1-4)GlcNAc(b1-2)Man(a1-3)[GlcNAc(b1-4)][Neu5Ac(a2-6)Gal(b1-4)GlcNAc(b1-2)Man(a1-6)]Man(b1-4)GlcNAc(b1-4)GlcNAc
Procedure, shortened: as §1

[9] = molecular target: Neu5Ac(a2-6)Gal(b1-4)GlcNAc(b1-2)Man(a1-3)[Man(a1-6)]Man(b1-4)GlcNAc(b1-4)GlcNAc
Procedure, shortened: as §1

[10] = molecular target: Neu5Ac(a2-6)Gal(b1-4)GlcNAc(b1-2)Man(a1-3)[Neu5Ac(a2-3)Gal(b1-4)GlcNAc(b1-2)Man(a1-6)]Man(b1-4)GlcNAc(b1-4)GlcNAc
Procedure, shortened: as §1

[11] = molecular target: Neu5Ac(a2-6)Gal(b1-4)GlcNAc(b1-2)Man(a1-3)[Neu5Ac(a2-6)Gal(b1-4)GlcNAc(b1-2)Man(a1-6)]Man(b1-4)GlcNAc(b1-4)GlcNAc
Procedure, shortened: as §1

[12] = molecular target: Neu5Ac(a2-6)Gal(b1-4)GlcNAc(b1-2)Man(a1-3)[Neu5Ac(a2-6)Gal(b1-4)GlcNAc(b1-2)Man(a1-6)]Man(b1-4)GlcNAc(b1-4)[Fuc(a1-6)]GlcNAc
Procedure, shortened: as §1

[13] = molecular target: Neu5Ac(a2-6)Gal(b1-4)GlcNAc(b1-2)Man(a1-6)Man(b1-4)GlcNAc(b1-4)GlcNAc
Procedure, shortened: as §1

[14] = molecular target: Neu5Ac(a2-6)Gal(b1-4)GlcNAc(b1-2)Man(a1-6)[Gal(b1-4)GlcNAc(b1-2)Man(a1-3)]Man(b1-4)GlcNAc(b1-4)GlcNAc
Procedure, shortened: as §1

[15] = molecular target: Neu5Ac(a2-6)Gal(b1-4)GlcNAc(b1-2)Man(a1-6)[GlcNAc(b1-2)Man(a1-3)]Man(b1-4)GlcNAc(b1-4)GlcNAc
Procedure, shortened: as §1

[16] = molecular target: Neu5Ac(a2-6)Gal(b1-4)GlcNAc(b1-2)Man(a1-6)[Man(a1-3)]Man(b1-4)GlcNAc(b1-4)GlcNAc
Procedure, shortened: as §1

[17] = molecular target: Neu5Ac(a2-6)Gal(b1-4)GlcNAc(b1-2)[Neu5Ac(a2-6)Gal(b1-4)GlcNAc(b1-4)]Man(a1-3)[GlcNAc(b1-4)][Neu5Ac(a2-6)Gal(b1-4)GlcNAc(b1-2)[Neu5Ac(a2-6)Gal(b1-4)GlcNAc(b1-6)]Man(a1-6)]Man(b1-4)GlcNAc(b1-4)GlcNAc
Procedure, shortened: as §1

[18] = molecular target: Neu5Ac(a2-6)Gal(b1-4)GlcNAc(b1-2)[Neu5Ac(a2-6)Gal(b1-4)GlcNAc(b1-4)]Man(a1-3)[GlcNAc(b1-4)][Neu5Ac(a2-6)Gal(b1-4)GlcNAc(b1-4)Man(a1-6)]Man(b1-4)GlcNAc(b1-4)GlcNAc
Procedure, shortened: as §1

[19] = molecular target: Neu5Ac(a2-6)Gal(b1-4)GlcNAc(b1-2)[Neu5Ac(a2-6)Gal(b1-4)GlcNAc(b1-6)]Man(a1-6)[Neu5Ac(a2-6)Gal(b1-4)GlcNAc(b1-2)Man(a1-3)][GlcNAc(b1-4)]Man(b1-4)GlcNAc(b1-4)GlcNAc
Procedure, shortened: as §1

[20] = molecular target: Neu5Ac(a2-6)Gal(b1-4)GlcNAc(b1-3)Gal(b1-3)GlcNAc
Procedure, shortened: as §1

[21] = molecular target: Neu5Ac(a2-6)Gal(b1-4)GlcNAc(b1-3)Gal(b1-4)GlcNAc
Procedure, shortened: as §1

[22] = molecular target: Neu5Ac(a2-6)Gal(b1-4)GlcNAc(b1-3)Gal(b1-4)GlcNAc(b1-2)Man(a1-3)[Neu5Ac(a2-6)Gal(b1-4)GlcNAc(b1-3)Gal(b1-4)GlcNAc(b1-2)Man(a1-6)]GalNAc
Procedure, shortened: as §1

[23] = molecular target: Neu5Ac(a2-6)Gal(b1-4)GlcNAc(b1-3)Gal(b1-4)GlcNAc(b1-3)Gal(b1-4)GlcNAc
Procedure, shortened: as §1

B1: Dectin2 (Homo sapiens), Q6EIG7 (protein)
chain: MMQEQQPQSTEKRGWLSLRLWSVAGISIALLSACFIVSCVVTYHFTYGETGKRLSELHSYHSSLTCFSEGTKVPAWGCCPASWKSFGSSCYFISSEEKVWSKSEQNCVEMGAHLVVFNTEAEQNFIVQQLNESFSYFLGLSDPQGNNNWQWIDKTPYEKNVRFWHLGEPNHSAEQCASIVFWKPTGWGWNDVICETRRNSICEMNKIYL
glycan array binding signal (z-score) [1]: -0.194 | glycan array binding signal (z-score) [2]: -0.178 | glycan array binding signal (z-score) [3]: -0.165 | glycan array binding signal (z-score) [4]: -0.182 | glycan array binding signal (z-score) [5]: -0.181 | glycan array binding signal (z-score) [6]: -0.065 | glycan array binding signal (z-score) [7]: 0.18 | glycan array binding signal (z-score) [8]: -0.169 | glycan array binding signal (z-score) [9]: -0.064 | glycan array binding signal (z-score) [10]: -0.182 | glycan array binding signal (z-score) [11]: -0.151 | glycan array binding signal (z-score) [12]: -0.123 | glycan array binding signal (z-score) [13]: -0.099 | glycan array binding signal (z-score) [14]: -0.188 | glycan array binding signal (z-score) [15]: -0.207 | glycan array binding signal (z-score) [16]: -0.144 | glycan array binding signal (z-score) [17]: -0.192 | glycan array binding signal (z-score) [18]: -0.193 | glycan array binding signal (z-score) [19]: -0.171 | glycan array binding signal (z-score) [20]: -0.17 | glycan array binding signal (z-score) [21]: -0.175 | glycan array binding signal (z-score) [22]: -0.114 | glycan array binding signal (z-score) [23]: -0.182
